Assay results published in PubChem BioAssay AID1159614 (National Center for Advancing Translational Sciences (NCATS), 2016).
Out of some 45,000 compounds screened, about 65 (0.1%) were called active. The call rests on the fitted dose curve; in most records, active means well fitted activation curve with a large enough effect; inconclusive means small, poorly fitted or top-dose-only effect; inactive means no such curve, though single readings can be large or run the other way. The list shows a part of the results.

Biological target: Galactocerebrosidase (Homo sapiens) (UniProt P54803)
Sequence of UniProt P54803 (P54803 whole entry, looked up): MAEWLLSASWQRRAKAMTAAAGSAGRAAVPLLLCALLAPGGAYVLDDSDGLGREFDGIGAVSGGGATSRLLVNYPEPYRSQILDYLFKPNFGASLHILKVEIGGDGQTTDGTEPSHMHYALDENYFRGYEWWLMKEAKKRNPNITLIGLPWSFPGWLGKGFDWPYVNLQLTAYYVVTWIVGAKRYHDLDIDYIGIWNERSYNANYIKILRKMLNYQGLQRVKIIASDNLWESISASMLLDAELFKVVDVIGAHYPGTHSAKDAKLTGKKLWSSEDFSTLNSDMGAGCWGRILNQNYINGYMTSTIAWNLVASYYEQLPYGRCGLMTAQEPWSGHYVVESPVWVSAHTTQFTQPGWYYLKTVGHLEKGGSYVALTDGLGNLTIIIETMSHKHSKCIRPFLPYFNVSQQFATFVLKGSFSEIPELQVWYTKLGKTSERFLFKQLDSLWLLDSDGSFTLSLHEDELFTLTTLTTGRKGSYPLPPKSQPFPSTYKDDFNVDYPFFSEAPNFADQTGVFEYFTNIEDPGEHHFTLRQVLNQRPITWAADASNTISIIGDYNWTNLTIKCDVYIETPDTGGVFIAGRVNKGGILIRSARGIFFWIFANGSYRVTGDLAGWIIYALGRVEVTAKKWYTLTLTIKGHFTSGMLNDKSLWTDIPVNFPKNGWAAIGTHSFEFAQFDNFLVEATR
Assay: A Novel Cell-Based Assay to Identify Small Molecules for B -Galactocerebrosidase; further: 0% is about no effect; nearly all actives have a fitted effect of over 65% in size
Details: 145M-Twi-hGALC-G270D cells (Twitcher mouse brain line with human GALC G270D), HMU-beta-Gal fluorescence, 48 h; series mostly up to 57.5 µM; activation: at the top concentration
In short: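 Live 145M-Twi cells (Twitcher mouse brain-derived, GALC-null) stably expressing human GALC-G270D, with a wild-type GALC line, were compound-treated. Residual GALC activity was then read as fluorescence from 0.1 mM final HMU-β-gal at pH 5.2; higher signal means activation.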

activation, inactive:
COC(=O)c1ccccc1-n1c(CCC(=O)O)ccc1-c1ccccc1 -14.3%, Cc1ccnc(NS(=O)(=O)c2ccc(NC(=O)c3nc(SC(C)C)ncc3Cl)cc2)n1 -15.4%, COc1ccc(C(=O)NCC(c2ccco2)S(=O)(=O)c2cccs2)cc1OC (stereo unspecified) -19%, COc1ccc(NC(=O)NC(C)c2c(-n3cccc3)sc3c2CCN(C)C3)c(OC)c1 (stereo unspecified) -8.04%, O=C(CSc1nnc2[nH]c(=O)cc(-c3ccccc3)n12)Nc1cc(C(F)(F)F)ccc1Cl 1.09%, CCOc1ccc(NC(=O)CN(C)S(=O)(=O)c2cnc[nH]2)cc1 -9.77%, Nc1c(C(=O)Nc2cccc(C(F)(F)F)c2)c2ccccn2c1C(=O)c1ccccc1 -14.2%, Brc1ccc2nc(SCCOc3ccccc3)[nH]c2c1 -14.1%, Cc1ccc2c(c1)N(C(=O)Nc1cccc3c1CCCC3)CC(C)O2 (stereo unspecified) -21%, COc1cc2c(cc1OC)C(COc1ccc3c(C)cc(=O)oc3c1)N(C(=O)CC(C)C)CC2 (stereo unspecified) -7.19%, CC(=O)Nc1nonc1-c1nc2ccccc2n1Cc1ccccc1Br -11.6%, Cc1ccc2oc(-c3cc(NC(=O)/C=C/c4ccco4)ccc3Cl)nc2c1 3.95%, CCC1Nc2cc(Cl)c(S(N)(=O)=O)cc2S(=O)(=O)N1 (stereo unspecified) -6.97%, CN1CCN(C(CNC(=O)c2ccccc2)c2ccc3c(c2)OCO3)CC1 (stereo unspecified) -13.6%, CCOc1ccc(NC(=O)c2c(NC(=O)c3cccs3)sc3c2CCC(C(C)(C)C)C3)cc1 (stereo unspecified) -11.9%, COc1ccccc1NC(=O)c1cc(S(=O)(=O)NCCC2=CCCCC2)ccc1F -6.43%, O=C(NCc1cccc(Cl)c1)C1CCCN(c2ncnc3onc(-c4ccc(F)cc4)c23)C1 (stereo unspecified) -3.02%, CCn1c(=O)cc(SCC(=O)N2CCN(c3ccccc3F)CC2)c2ccccc21 -8.99%, COC(=O)c1cc(NC(=O)c2ccc(-c3ccc(Cl)cc3Cl)o2)cc(C(=O)OC)c1 -8.69%, COc1ccc(NC(=O)CCc2c(C)nc3c(-c4ccc(F)cc4)c(C)nn3c2C)c(OC)c1 -15.7%, Cc1ccccc1CN1CCCN(CC(=O)Nc2ccc3c(c2)OCCO3)S1(=O)=O 1.52%, Cc1cccc(Cn2nnc3c(=O)[nH]c(C4CCN(C(=O)c5ccc(F)cc5)CC4)nc32)c1 -13%, CCOC(=O)c1noc2nc(C)n(Cc3ccc([N+](=O)[O-])cc3)c(=O)c12 -5.36%, CCc1ccc(NC(=O)N2CCN(C(=O)c3nsc4ccccc34)CC2)cc1 -1.51%, O=C(Nc1ccc(C(F)(F)F)cc1)N1CCC(N2CCCCC2)CC1 7.72%, CNC(=O)C1CCN(c2nc3ccccc3nc2C(F)(F)F)CC1 -6.15%, CC(C)CN(CCNC(=O)c1cc(-c2ccc(Cl)s2)nc2ccccc12)CC(C)C -5.12%, CCCN(C(=O)Cn1cc(S(=O)(=O)N2CCN(c3ccccc3F)CC2)c2ccccc2c1=O)c1cccc(C)c1 -15.2%, CCOc1ccc(OCC)c(Nc2nc3ccc(Cl)cc3n3cnnc23)c1 1.1%, COc1cccc(CNC(=O)Cn2c(C)c3cnn(-c4ccccc4)c(=O)c3c2C)c1 -11.4%, Cc1ccsc1CN1CCc2nc(N3CCN(c4ccccc4F)CC3)ncc2C1 -17.2%, COc1cc(Cl)c(C)cc1NC(=O)c1cnc2c(-c3cccc(C)c3)c(C)nn2c1C -10.9%, CNC(=O)c1ccc(CSc2nc3ccncc3n2Cc2ccc(C)cc2)cc1 -15.6%, COCc1cc(C)nc2sc(C(=O)Nc3cc(C)ccc3F)c(N)c12 -7.6%, Cc1cc(C)cc(N2CCn3c2nc2c3c(=O)n(CCCc3ccccc3)c(=O)n2C)c1 -7.27%, CC(C)(C)C(=O)Cn1c(=O)n(-c2ccc(Cl)c(Cl)c2)c(=O)c2c3c(sc21)CCCC3 2.54%, Cc1ccc(-c2nc3cc(C(C)C)ccc3o2)cc1NC(=O)c1cc([N+](=O)[O-])ccc1N1CCOCC1 -9.31%, CCOc1ccc(-c2noc(CSc3nnc(Cc4ccccc4)n3-c3cccc(C)c3)n2)cc1 -14.2%, COCCCNC(=O)C1CCCN(c2nn3cc(-c4ccc(C)cc4)nc3s2)C1 (stereo unspecified) -6.02%, CN(C(=O)CSc1nnc(-c2ccc([N+](=O)[O-])cc2)o1)c1ccccc1 -0.576%, Cc1ccc(CNC(=O)CCCn2c(=O)c3ccccc3n(Cc3ccc(Cl)cc3)c2=O)cc1 0.846%, COc1ccc(CCNC(=O)Cn2cc(C(=O)c3ccc(F)cc3)c(=O)c3ccc(C)nc32)cc1OC 13.2%, Cc1ccc(CNC(=O)CCC(=O)N2CCSc3ccccc32)cc1 3.72%, CCCn1ccc2c(OCC(=O)NCc3ccccc3Cl)cccc2c1=O -14.7%, O=C(CSc1nccn1Cc1ccccc1)NCc1ccccc1Cl -10.8%, CCc1ccccc1NC(=O)NCc1ccc2c(c1)CCN2C(=O)c1ccccc1 -17.1%, COC(=O)c1c(-c2ccc(Cl)cc2)noc1N1CCN(c2cccc(C(F)(F)F)c2)CC1 -11.1%, O=C(Nc1ccccc1C(=O)OCc1cc(=O)n2c3c(sc2n1)CCCC3)c1cccc(Cl)c1 -5.87%, CC(C)Cn1cc(NC(=O)N2CCN(c3ccccc3F)CC2)c2ccccc2c1=O -21.6%, CC1(C)[C@@H]2CC[C@@]1(C)C(=O)C2 -10.6%, Cc1cccc(C)c1Nc1c(-c2ccsc2)nc2ccc(Cl)cn12 -15.6%, Cc1cc(C)nc(NS(=O)(=O)c2ccc(NC(=O)COc3ccc(C(C)(C)C)cc3)cc2)n1 -0.726%, CCOC(=O)CC(NC(=O)N1CCC(CN2CCC(C)CC2)CC1)c1ccccc1 (stereo unspecified) -16%, COc1cc(OC)cc(N2CCN(S(=O)(=O)c3ccc(-n4cnnn4)cc3)CC2)c1 -1.43%, O=c1c(N2CCN(c3cccc(C(F)(F)F)c3)CC2)csc2ccc(Cl)cc12 -10%, Cc1ccccc1CSc1nc2c(sc3ccccc32)c(=O)n1CCCOC(C)C 5.06%, COC(c1ccccc1)(c1ccccc1)[C@H](Oc1nc(C)cc(C)n1)C(=O)O 4.09%, COC(=O)c1cc2oc3ccccc3c2n1Cc1cc(C)ccc1C 6.7%, COc1ccc(OC)c(CCNC(=O)c2cnn(-c3ccccc3)c2C2CCN(C(=O)OC(C)(C)C)CC2)c1 -4.04%, COc1ccc(-c2cn3nc(N4CCCC(C(=O)NCc5ccccc5Cl)C4)sc3n2)cc1 (stereo unspecified) 4.43%, CC(=O)c1cccc(NC(c2ccc(F)cc2)c2nnc(-c3ccccc3)o2)c1 (stereo unspecified) -6.71%, CCSc1nnc2c(n1)OC(CC)N(C(C)=O)c1ccccc1-2 (stereo unspecified) -1.85%, Cc1ccc(-n2nnnc2CNC(=O)C(C)C)cc1C -9.18%, Cc1nn(C)c2c1c(-c1ccccc1)cc(=O)n2C(C)C(=O)NCc1ccc(F)cc1 (stereo unspecified) -9.16%, O=C1CC(c2ccccc2)Cc2[nH]c(=O)c(-c3nc(-c4ccc(Cl)cc4)cs3)cc21 (stereo unspecified) -14%, CCN1CCN(C(c2cccc(F)c2)c2c(O)cc(C)n(Cc3ccco3)c2=O)CC1 (stereo unspecified) -19.6%, O=C(NCc1cccc(F)c1)c1cccc(NC(=O)c2nsc3ccccc23)c1 -16.7%, COc1ccc(OC)c(C2c3c(oc4ccc(C)cc4c3=O)C(=O)N2CCCN(C)C)c1 (stereo unspecified) -8.68%, CCN(Cc1ccccc1)Cc1c(O)ccc2c(=O)c(-c3ccccc3Cl)c(C(F)(F)F)oc12 -30.4%, CCc1ccc(Nc2nc(N)nc(CSc3nc4ccccc4s3)n2)cc1 -13.1%, CCc1ccccc1NS(=O)(=O)c1ccc2c(c1)OCC(C(=O)N1CCCC1)O2 (stereo unspecified) -11.6%, CCCN(CCC)C(=O)CSc1nc2sc3c(c2c(=O)n1-c1ccccc1)CCN(C(C)=O)C3 -8.11%, CCOCc1cc(CN2CCN(c3cccc(Cl)c3)CC2)c(O)c2ncccc12 -11.9%, CC(=O)Nc1cccc(NC(=O)c2c(-c3ccccc3)c(-c3ccccc3)nn(C)c2=O)c1 2.74%, C=Cc1c(C)c2cc3[nH]c(cc4nc(cc5nc(cc1[nH]2)C(C)=C5CCC(=O)O)C(CCC(=O)O)=C4C)c(C)c3C=C -10.5%, O=c1c2c(-c3ccc(Cl)cc3)ccnc2[nH]n1-c1ccccc1 -6.18%, CC(=O)c1ccc(N2CCN(S(=O)(=O)c3ccc4[nH]c5c(c4c3)CCCC5)CC2)cc1 -6.79%, O=C(NCCC1=CCCCC1)c1ccc2c(c1)ncn2-c1ccc(F)c(F)c1 -14.4%, CCOc1ccccc1C1CC(=O)Oc2c1c(=O)n(C)c1ccccc21 (stereo unspecified) -11%, Cc1ccc(Cl)cc1NC(=O)Cn1c(=O)c2ccccc2n2nncc12 -14.7%, CCC(C(=O)Nc1cc(-c2nc3cccnc3s2)ccc1C)c1ccccc1 (stereo unspecified) -9.24%, COc1cccc(CNC(=O)C2CCN(c3nnc(-n4c(C)ccc4C)s3)CC2)c1 -13.3%, Cc1cccc(-n2ncc3c(NC4CCCC4)ncnc32)c1 -13.7%, CCc1ccc(-n2nc3ccc(NC(=O)c4ccc(C#N)cc4F)cc3n2)cc1 4.9%, Fc1ccc(-c2cn3cc(Cc4ccc(Cl)cc4)sc3n2)cc1 -7.81%, CCC(CC)C(=O)Nc1cccc(-c2nc3ccccc3s2)c1 17.4%, CCOc1ccc(-c2nnc(SCC(=O)NCc3ccc(C)cc3)nc2-c2ccc(OCC)cc2)cc1 -8.74%, Cc1ccc(NC(=O)C2CCCN(S(=O)(=O)c3cccc4cccnc34)C2)c(C)c1 (stereo unspecified) -11.6%, Cc1c(CC(=O)NCCc2ccc(Cl)cc2)c(=O)oc2c(C)c3occ(C(C)(C)C)c3cc12 -11.6%, CCOC(=O)c1sc(NC(=O)c2cc(-c3ccc(F)cc3)on2)c(C(=O)OCC)c1C -12.4%, COC(=O)c1ccc2c(=O)n(CCCCCC(=O)N3CCN(c4ccc(OC)cc4)CC3)c(=O)[nH]c2c1 -7.97%, CCOC(=O)CSc1nc2ccc(NC(=O)c3ccccc3F)cc2s1 -1.16%, Cc1ccccc1-c1nc2cc(NC(=O)COc3ccc(F)cc3)ccc2o1 -8.14%, CCOC(=O)c1c(-c2ccccc2)csc1NC(=O)c1cc(-c2ccc(Cl)cc2)on1 -3.71%, CC1=C(C(=O)Nc2ccc(C)cc2C)C(c2ccccc2)n2ncc(C(=O)Nc3ccccc3)c2N1 (stereo unspecified) -5.29%, COC(=O)C1=C(C)NC(C)=C(C(=O)OCCN2CCN(C(c3ccccc3)c3ccccc3)CC2)C1c1cccc([N+](=O)[O-])c1 (stereo unspecified) -17.6%
